# About 2,200 (0.71%) of roughly 310,000 compounds showed an effect of 50% or more. Effects have a minus sign here. This is one part of the list.
# Target: human ether-à-go-go-related gene (hERG) potassium channel (human, UniProt Q12809)
# Experiment: primary screen, population patch clamp on CHO cells stably expressing hERG
# human ether-à-go-go-related gene (hERG) potassium channel, sequence (Q12809 whole entry, looked up): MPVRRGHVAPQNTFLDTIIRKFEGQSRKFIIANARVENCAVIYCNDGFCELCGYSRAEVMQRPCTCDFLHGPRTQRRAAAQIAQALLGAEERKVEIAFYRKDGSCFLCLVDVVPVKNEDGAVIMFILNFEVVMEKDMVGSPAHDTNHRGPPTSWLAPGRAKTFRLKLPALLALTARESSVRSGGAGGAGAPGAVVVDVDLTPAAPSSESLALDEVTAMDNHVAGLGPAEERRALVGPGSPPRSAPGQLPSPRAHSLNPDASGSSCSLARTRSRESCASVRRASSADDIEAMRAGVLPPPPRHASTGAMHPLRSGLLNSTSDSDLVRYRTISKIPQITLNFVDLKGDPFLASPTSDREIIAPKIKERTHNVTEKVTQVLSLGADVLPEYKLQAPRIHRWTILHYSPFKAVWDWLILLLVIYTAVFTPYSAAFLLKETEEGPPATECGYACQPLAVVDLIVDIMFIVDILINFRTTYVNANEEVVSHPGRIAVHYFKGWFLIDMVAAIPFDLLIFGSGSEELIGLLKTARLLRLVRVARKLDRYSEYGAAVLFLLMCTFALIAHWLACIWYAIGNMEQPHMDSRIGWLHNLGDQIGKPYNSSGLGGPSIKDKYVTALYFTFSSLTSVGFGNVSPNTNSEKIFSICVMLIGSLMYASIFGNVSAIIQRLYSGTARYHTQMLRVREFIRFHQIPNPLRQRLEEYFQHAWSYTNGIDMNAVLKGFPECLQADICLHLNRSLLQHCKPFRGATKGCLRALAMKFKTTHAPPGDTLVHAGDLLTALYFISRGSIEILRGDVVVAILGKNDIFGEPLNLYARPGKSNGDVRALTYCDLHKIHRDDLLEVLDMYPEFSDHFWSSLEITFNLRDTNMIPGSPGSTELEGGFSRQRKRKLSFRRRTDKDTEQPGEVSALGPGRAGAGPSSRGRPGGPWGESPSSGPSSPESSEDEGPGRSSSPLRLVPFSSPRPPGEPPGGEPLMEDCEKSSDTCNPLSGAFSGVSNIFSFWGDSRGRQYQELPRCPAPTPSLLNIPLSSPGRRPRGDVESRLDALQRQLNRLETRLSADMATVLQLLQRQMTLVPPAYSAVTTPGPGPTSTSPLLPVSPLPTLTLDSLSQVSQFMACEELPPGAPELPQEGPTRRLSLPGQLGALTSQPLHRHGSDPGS
row,SMILES,"hERG current change (%, negative = inhibition) at 1uM"
1,Cc1ccccc1C(=O)N/N=C/c1cccc2ccccc12,11.7%
2,O=C(CSc1nnc(-c2cccs2)n1-c1ccccc1)NCc1ccc2c(c1)OCO2,-33.8%
3,CCOC(=O)c1c(-c2cccs2)csc1NC(=O)c1ccco1,6.7%
4,COC(=O)c1cn(NC(=O)/C=C/c2ccc(OC)c(OC)c2)c(=O)c2ccccc12,2.74%
5,Cc1cc(C)n(-c2ccc(C(=O)OCC(=O)Nc3cc(S(C)(=O)=O)ccc3Cl)cc2)n1,3.24%
6,Cc1oc(-c2ccccc2)cc1C(=O)Nc1ccc(N(C)C)cc1,13.4%
7,O=c1c2sccc2[nH]c(=S)n1Cc1ccccc1,12.3%
8,O=C(c1cc2cc([N+](=O)[O-])ccc2s1)N1CCOCC1,3.8%
9,CCCc1cc(=O)oc2cc(OCC(=O)N(C)C)c(Cl)cc12,14%
10,COc1ccc(Br)cc1C(=O)Nc1cccc2ncccc12,15.9%
11,CCN1CCN(C(c2cccs2)C(C)NS(=O)(=O)c2ccc(C)cc2)CC1 (stereo not drawn),15.6%
12,COc1cccc(CNC(=O)C23CN(Cc4ccccc4)CC2C(c2ccc([N+](=O)[O-])cc2)=NO3)c1 (stereo not drawn),-0.219%
13,Cc1cc(F)ccc1S(=O)(=O)N1CCCOC1CNC(=O)C(=O)NCCc1c[nH]c2ccccc12 (stereo not drawn),6.65%
14,CC1CN=C(NCc2ccccc2Cl)S1 (stereo not drawn),12.4%
15,CCN1C(=O)[C@H]2[C@@H](c3ccc(-c4ccc(C(C)=O)cc4)c(OC)c3)N[C@@](Cc3ccccc3)(C(=O)OC)[C@H]2C1=O.O=C(O)C(F)(F)F,12.1%
16,O=C(CC1C(=O)NCCN1Cc1ccc(-c2ccccc2)cc1)NCc1ccncc1 (stereo not drawn),6.26%
17,COC(=O)[C@@H]1C[C@@H]2CC[C@@H](O)C[C@@H]2N1Cc1ccc(Cl)cc1,25.7%
18,N#C/C(=C\c1ccc([N+](=O)[O-])o1)c1nc2ccccc2[nH]1,11.5%
19,O=C(NCCN1C(=O)S/C(=C\c2ccccc2F)C1=O)C1CC(=O)N(Cc2ccccc2)C1 (stereo not drawn),6.55%
20,O=C1Nc2ccccc2N(O)N1c1ccc(Cl)c(Cl)c1,13.3%
21,Cc1ccc(C(=O)CSc2nnc3n2CCCCC3)s1,5.62%
22,CCC(C)(C)NC(=O)C(c1cccs1)N(CC1CCCO1)C(=O)Cn1nnc2ccccc21 (stereo not drawn),9.67%

row,SMILES,"hERG current change (%, negative = inhibition) at 1uM"
1,CC(CC(=O)N(CCC1=CCCCC1)c1c(N)n(Cc2ccccc2)c(=O)[nH]c1=O)c1ccccc1 (stereo not drawn),15.4%
2,Cc1ccccc1COCCN1CCN(S(=O)(=O)c2ccccc2)CCC1=O,8.86%
3,O=C(CCN1C(=O)/C(=C/c2ccccc2F)SC1=S)N[C@@H](CO)Cc1ccccc1,6.24%
4,CCCCCCC1CC(C)(C(=O)C[NH2+]c2nncs2)OC1=O.[Br-] (stereo not drawn),-32.3%
5,O=C(NCCc1ccc(F)cc1)c1cc(=O)c2ccccc2o1,7.95%
6,Nc1nccnc1C(=O)OCC(=O)NCCc1ccc(S(N)(=O)=O)cc1,12.7%
7,COc1ccc(OC)c(-c2csc3nnc(SCC(=O)Nc4ccc(NC(C)=O)cc4)n23)c1,-2.97%
8,CCOC(=O)c1ccc(N=Nc2c(C)[nH]n(-c3ccccc3)c2=O)cc1,13.7%
9,C=C(C)Cn1c(C(C)NC(=O)CCC)nc2ccccc21 (stereo not drawn),15.8%
10,C/C(=N\NC(=O)c1cccc(S(=O)(=O)Nc2cccc(Cl)c2)c1)c1cccs1,5.82%
11,Cc1ccc(C2=NN(C)c3nc4ccccc4n3C2)cc1,7.06%
12,Cn1cc(CN2CCCCC2C(=O)Nc2ccc(-n3cccn3)cc2)cn1 (stereo not drawn),20.2%
13,CCCN(CCC)C(=O)CSc1nc2c(sc(=S)n2-c2ccc(OCC)cc2)c(=O)[nH]1,2.53%
14,Cc1cccc(N2CCN(C(=O)CCC(=O)N3CC(C)Oc4ccccc43)CC2)c1C (stereo not drawn),1.87%
15,O=C(O)C(=O)O.Oc1ccccc1NCC(O)Cn1ccc2ccccc21 (stereo not drawn),19%
16,Cc1cccc(N2CCN(C(=O)NCc3ccc(F)cc3)CC2)c1C,-1.23%
17,CCOC(=O)NCc1ccc(S(=O)(=O)Nc2ccccc2C)cc1,-22.2%
18,Cn1cc(C(=O)C(=O)N2CCN(c3ccccc3)CC2)c2ccccc21,6.8%
19,CCC1(C)CC(CCN(Cc2ccco2)C(C)=O)(c2ccccc2)CCO1 (stereo not drawn),7.64%
20,C=C(C)Cn1cnc2cc(C)c(C)cc21,1.98%
21,CCOc1ccc(-c2nnc3ccc(SC)nn23)cc1,1.91%
22,CCN(CC)S(=O)(=O)c1ccc(OC)c(NC(=O)c2cccs2)c1,16.6%

row,SMILES,"hERG current change (%, negative = inhibition) at 1uM"
1,COC(=O)C1=CO[C@@H](O)C2C(CO)=CCC12 (stereo partly drawn),14.5%
2,O=C(CC1S/C(=N/N=C/c2ccco2)NC1=O)Nc1ccccc1 (stereo not drawn),14.3%
3,CCC(=O)NCC(c1cccs1)N1CCOCC1.Cl (stereo not drawn),14.4%
4,CC(C)(C)c1ccc(-c2nnc(SCCN3C(=O)c4ccccc4C3=O)o2)cc1,19.1%
5,CCOCCCNC(=O)C(Cc1ccccc1)NC(=O)c1ccco1 (stereo not drawn),4.07%
6,Cc1cccc2nc(C(F)(F)F)nc(=O)n12,13.7%
7,Cc1c(CCO)c(=O)[nH]n1S(=O)(=O)c1cccc(C(F)(F)F)c1,7.76%
8,Cc1ccc(C(=O)NCCCNC(=O)c2ccc(Cl)cc2)cn1,8.86%
9,CC(O)c1nc2cc([N+](=O)[O-])ccc2n1Cc1ccccc1 (stereo not drawn),11.7%
10,CC(C(=O)Nc1ccc(Cl)cc1Cl)N1C(=O)NC2(CCCC2)C1=O (stereo not drawn),1.95%
11,CCCNC(=S)N1CCC(C(=O)c2ccc(F)cc2)CC1,11.9%
12,Cc1nc(-c2ccc(NC(=O)CC(C)C)cc2)cs1.Cl,11.6%
13,COc1ccc(-c2nn(-c3ccccc3)cc2C(=O)O)cc1,17.7%
14,Cc1cccc(NC(=O)[C@H](NC(=O)[C@@H]2Cc3ccccc3CN2)c2ccccc2)c1,0.447%
15,CCCCC(=O)NC(=S)NNC(=O)CC,8.05%
16,Cn1nc(C(F)(F)F)c(C(=O)Nc2ccc(C(F)(F)F)cc2)c1Cl,6.26%
17,CC(NC(=O)c1ccccc1Br)c1nnc(SCc2ccc([N+](=O)[O-])cc2)n1C (stereo not drawn),-9.79%
18,CCO[C@@H]1OC(C(=O)O)=C[C@H](C)[C@H]1CCCO,15%
19,Cc1ccc(C(=O)Nc2nc(C(C)(C)C)cs2)s1,15.1%
20,Cc1ccc(NC(=O)c2cc(NC(=O)CCCC(=O)O)ccc2Cl)cc1Cl,14.5%
21,CCOC(=O)Cn1c(CN2CC(C)OC(C)C2)nc2c1c(=O)n(C)c(=O)n2C (stereo not drawn),17.2%
22,CCN(CC)c1nc(Nc2ccc([N+](=O)[O-])cc2)nc(N(CC)CC)n1,5.39%

row,SMILES,"hERG current change (%, negative = inhibition) at 1uM"
1,CC(C)NC(=O)COC(=O)c1ccc(S(=O)(=O)N2CCCC2)cc1,19.3%
2,COc1cc(OC)cc(-c2c(-c3ccc(F)cc3)c3cc(-c4ccc5[nH]ccc5c4)ccc3n2C)c1,9.39%
3,CCOc1ccccc1C(=O)NCC(=O)N1CCN(Cc2ccc3c(c2)OCO3)CC1,5.16%
4,CC(=O)c1c(C(C)=O)c(C)n(Cc2ccc(Cl)cc2)c1C,-12.3%
5,CCOc1cccc(C2C(C(=O)c3ccc(C)o3)=C(O)C(=O)N2Cc2ccncc2)c1 (stereo not drawn),10.2%
6,CC(=O)Nc1ccc(-c2csc(NCc3ccco3)n2)cc1,1.42%
7,CCCCN(CCCC)CCCNC(=O)c1ccc2nc(-c3ccccc3NC(C)=O)c(=O)[nH]c2c1,22.9%
8,O=C(NCc1ccccc1)C1CCN(c2nc(-c3ccccc3)nc3c2CCC3)CC1,5.27%
9,O=C(COc1ccc2c3c(c(=O)oc2c1)CCC3)N1C[C@H]2C[C@@H](C1)c1cccc(=O)n1C2,-9.16%
10,N/C(=N\O)c1cn(Cc2ccccc2Cl)c2ccccc12,10.9%
11,CCN(CCn1cccn1)C(=O)c1cc(COc2cccc3cccnc23)on1,5.28%
12,COc1ccc(CCNC(=O)c2cnc(Cl)c(Cl)c2)cc1,10.4%
13,CC(=O)c1c(C(=O)O)[nH]c(C(=O)O)c1C,10.4%
14,O=C(COc1ccccc1Cl)Nc1ccc(CN2CCCCC2)cc1,-2.19%
15,COC(=O)c1ccc(Nc2nc3ccc(C)cc3n3cnnc23)cc1,12.1%
16,CCOC(=O)c1cnn2c(C(F)(F)F)cc(-c3ccco3)nc12,0.177%
17,Cc1ccc(N2CC(=O)N(NC(=O)CN3CCN(c4ccccc4)CC3)CC2=O)cc1,9.63%
18,O=C(C1CC1)N1CCc2cc(S(=O)(=O)NCc3ccccc3)ccc21,14.8%
19,c1ccc(Cn2nnc3c(NCc4ccc5c(c4)OCO5)ncnc32)cc1,4.27%
20,Cc1ccnc(NC(=O)Cc2ccc(F)cc2)n1,-0.374%
21,Cc1cccc(C(=O)NC(C)c2ccc(-n3ccnc3)cc2)c1C (stereo not drawn),-0.373%
